Results from a compilation of properties of binary mixtures (doi:10.1039/c2cc30374d).
The densities may have been worked out from excess volumes.

Assay: xn = mol fraction of the nth substance listed
Conditions: 101 kPa

[N-]=C=S.[NH4+] + CC(=O)[O-].CC[n+]1ccn(C)c1
mass density [kg/m3]
Conditions | 298.15 K | 303.15 K | 308.15 K | 313.15 K | 318.15 K | 323.15 K | 328.15 K | 333.15 K
x1 = 0.02 | 1101.5 | 1098.4 | 1095.4 | 1092.3 | 1089.3 | 1086.3 | 1083.2 | –
x1 = 0.1002 | 1104.5 | – | 1098.3 | 1095.2 | 1092.1 | 1089 | – | –
x1 = 0.1998 | 1107.1 | – | – | 1097.7 | – | 1091.2 | 1087.9 | –
x1 = 0.2514 | 1106.9 | 1103.8 | – | 1097.4 | 1094.2 | 1091 | 1087.7 | 1084.3
x1 = 0.3001 | – | – | 1101 | 1097.9 | 1094.6 | 1091.4 | 1088 | –
x1 = 0.3199 | – | 1104.3 | 1101.1 | 1098 | 1094.7 | 1091.5 | – | 1084.7
x1 = 0.3413 | 1108 | 1104.8 | – | – | 1095.4 | 1092.1 | 1088.8 | 1085.4

[N-]=C=S.[NH4+] + CCOS(=O)(=O)[O-].CC[n+]1ccn(C)c1
mass density [kg/m3]
Conditions | 298.15 K | 303.15 K | 308.15 K | 313.15 K | 318.15 K | 323.15 K | 328.15 K | 333.15 K
x1 = 0.0235 | – | 1232.6 | 1229.2 | 1225.9 | 1222.6 | 1219.3 | 1216 | –
x1 = 0.1553 | 1230.4 | 1227.1 | 1223.9 | 1220.7 | 1217.5 | 1214.3 | 1211.1 | 1207.9
x1 = 0.3025 | – | 1218.8 | – | 1212.6 | 1209.6 | 1206.5 | 1203.5 | –
x1 = 0.4042 | 1216.3 | 1213.2 | – | 1207.1 | 1204.1 | 1201.1 | 1198.2 | –
x1 = 0.5205 | 1212.6 | 1209.5 | 1206.4 | 1203.4 | – | 1197.5 | 1194.6 | 1191.6
x1 = 0.565 | 1212.6 | – | 1206.4 | 1203.4 | – | – | 1194.4 | 1191.5
x1 = 0.5997 | 1212.6 | 1209.3 | 1206.3 | – | 1200.3 | 1197.3 | 1194.3 | –

CCOS(=O)(=O)[O-].CC[n+]1ccn(C)c1 + [N-]=C=S.[NH4+]
x2 = 0
Conditions | mass density [kg/m3]
298.15 K | 1236.5
303.15 K | 1233.1
308.15 K | 1229.7
313.15 K | 1226.4
318.15 K | 1223
323.15 K | 1219.6
328.15 K | 1216.3
333.15 K | 1213

CC(=O)[O-].CC[n+]1ccn(C)c1 + [N-]=C=S.[NH4+]
x2 = 0
Conditions | mass density [kg/m3]
298.15 K | 1100.8
303.15 K | 1097.8
308.15 K | 1094.8
318.15 K | 1088.7
323.15 K | 1085.7
328.15 K | 1082.7
333.15 K | 1079.7
